This passage reports EC50 and Kd results from patent US20260078196A1 (TJ BIOPHARMA SHANGHAI, published 2026).

In experiment [1] the target is T1, human CLDN6 on cells (human, UniProt P56747 1-220).
T1 construct: CHO-K1 cells stably expressing human CLDN6, and OVCAR3 / OV90 cells with endogenous CLDN6; also called CHO-K1-CLDN6; CLDN6 on OVCAR3 and OV90 cells
T1 sequence: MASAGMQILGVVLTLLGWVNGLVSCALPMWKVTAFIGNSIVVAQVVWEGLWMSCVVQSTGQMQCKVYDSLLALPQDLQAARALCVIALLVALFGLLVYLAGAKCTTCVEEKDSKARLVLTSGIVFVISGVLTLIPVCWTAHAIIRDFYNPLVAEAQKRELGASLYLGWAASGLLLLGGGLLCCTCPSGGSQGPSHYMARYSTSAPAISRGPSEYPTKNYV
Kind of experiment: flow cytometry (GMFI) on OV90 cells.

Experiment [2] concerns the target T1, human CLDN6 on cells. Kind of experiment: flow cytometry (GMFI) on CHO-K1-CLDN6 cells. (In general: In flow cytometry, cells or beads pass a laser one at a time.)
Another experiment addresses T2, 4-1BB on cells (human, UniProt Q07011 24-255).
T2 construct: Species is stated as human for section 2.2 as a whole, not for each cell line; also called HEK293 cells expressing 4-1BB; 4-1BB overexpressed HEK293 cell
In words: flow cytometry on HEK293 cells expressing 4-1BB.

In experiment [3] the target is T3, human CLDN6 on virus-like particles (human, UniProt P56747 1-220).
T3 construct: also called CLDN6 virus-like particles (VLP); CLDN6 VLP
T3 sequence: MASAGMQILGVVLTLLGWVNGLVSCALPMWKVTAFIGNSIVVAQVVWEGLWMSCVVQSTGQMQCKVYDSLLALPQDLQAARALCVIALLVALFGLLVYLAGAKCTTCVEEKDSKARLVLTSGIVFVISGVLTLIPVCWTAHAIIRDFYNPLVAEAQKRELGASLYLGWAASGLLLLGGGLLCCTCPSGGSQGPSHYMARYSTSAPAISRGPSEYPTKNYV

The next experiment concerns the target T4, monomeric human 4-1BB (human, UniProt Q07011 24-186, limits assumed).
T4 construct: SPR analyte/ligand
In words: SPR, monomeric human 4-1BB. For orientation: SPR reads the build-up and loss of mass on a sensor chip optically.

Experiment [4] deals with T5, soluble recombinant human 4-1BB (human, UniProt Q07011 24-186).
T5 construct: ELISA antigen
Kind of experiment: ELISA, soluble recombinant human 4-1BB. In general terms: In an ELISA, binding on a coated surface is turned into a signal by an enzyme label.

The target of experiment [5] is T1, human CLDN6 on cells. Kind of experiment: flow cytometry (GMFI) on OVCAR3 cells.

4-1BB on cells, sequence (Q07011 24-255): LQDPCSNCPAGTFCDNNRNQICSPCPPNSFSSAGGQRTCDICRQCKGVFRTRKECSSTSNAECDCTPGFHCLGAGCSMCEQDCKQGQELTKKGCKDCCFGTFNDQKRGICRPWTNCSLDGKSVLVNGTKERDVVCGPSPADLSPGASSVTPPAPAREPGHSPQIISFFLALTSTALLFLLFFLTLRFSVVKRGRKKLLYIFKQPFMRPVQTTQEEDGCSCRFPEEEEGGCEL
monomeric human 4-1BB, sequence (Q07011 24-186 limits assumed): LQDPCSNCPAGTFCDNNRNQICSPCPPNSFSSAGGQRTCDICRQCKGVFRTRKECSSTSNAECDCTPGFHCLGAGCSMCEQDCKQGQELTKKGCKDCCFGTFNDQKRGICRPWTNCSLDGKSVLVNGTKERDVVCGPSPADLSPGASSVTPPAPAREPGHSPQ
soluble recombinant human 4-1BB, sequence (Q07011 24-186 limits assumed): as above

B1: CLDN6-1 IgG1 WT X 4-1BB (bispecific antibody)
heavy: QVQLQESGPGLVKPSETLSLTCTVSGYSITSGYYWNWIRQPPGKGLEWMGYISYSGSNNYNPSLKNRVTISRDTSKNQFSLKLSSVTAADTAVYYCARGGYYFDYWGQGTLVTVSS[… human IgG1 constant region …]GGGGSGGGGSGGGGSQVQLQESGGGLVQPGGSLRLSCAASGYTYSSNCMGWFRQAPGKGLEGVAVICTGGGSPSYADSVKGRFTISRDNAKNTLYLQMNSLRAEDTAVYYCAADLLRAGTPLSSYEFNYWGQGTLVTVSS
light: DIVMTQSPDSLAVSLGERATINCKSSQSLLNTNNQKNYLAWYQQKPGQPPKLLIYFASTRESGVPDRFSGSGSGTDFTLTISSLQAEDVAVYFCQQHYNAPRTFGGGTKVEIKRTVAAPSVFIFPPSDEQLKSGTASVVCLLNNFYPREAKVQWKVDNALQSGNSQESVTEQDSKDSTYSLSSTLTLSKADYEKHKVYACEVTHQGLSSPVTKSFNRGEC
notes: also called CLDN6-1 X 4-1BB WT; CLDN6-1×4-1BB WT
For orientation: EC50 means the concentration giving half of the maximal effect. As usually defined, the Kd is the concentration at which binding is half-saturated. Consider B1, for which the EC50 in the experiment with human CLDN6 on cells [1] was determined as 2.27 nM; in the experiment with human CLDN6 on cells [2], 1.13 nM; with 4-1BB on cells it was 0.347 nM; in experiment [4], 0.078 nM; in the experiment with human CLDN6 on cells [5] it was 6.28 nM. The figures for the Kd (in experiment [3]; with monomeric human 4-1BB) were 2.36 nM and 15.7 nM, respectively.

B2: CLDN6-1 IgG1 N297A X 4-1BB (bispecific antibody)
heavy: QVQLQESGPGLVKPSETLSLTCTVSGYSITSGYYWNWIRQPPGKGLEWMGYISYSGSNNYNPSLKNRVTISRDTSKNQFSLKLSSVTAADTAVYYCARGGYYFDYWGQGTLVTVSSASTKGPSVFPLAPSSKSTSGGTAALGCLVKDYFPEPVTVSWNSGALTSGVHTFPAVLQSSGLYSLSSVVTVPSSSLGTQTYICNVNHKPSNTKVDKKV[… human IgG1 Fc with changes …]GGGGSGGGGSGGGGSQVQLQESGGGLVQPGGSLRLSCAASGYTYSSNCMGWFRQAPGKGLEGVAVICTGGGSPSYADSVKGRFTISRDNAKNTLYLQMNSLRAEDTAVYYCAADLLRAGTPLSSYEFNYWGQGTLVTVSS
light: DIVMTQSPDSLAVSLGERATINCKSSQSLLNTNNQKNYLAWYQQKPGQPPKLLIYFASTRESGVPDRFSGSGSGTDFTLTISSLQAEDVAVYFCQQHYNAPRTFGGGTKVEIKRTVAAPSVFIFPPSDEQLKSGTASVVCLLNNFYPREAKVQWKVDNALQSGNSQESVTEQDSKDSTYSLSSTLTLSKADYEKHKVYACEVTHQGLSSPVTKSFNRGEC
notes: also called CLDN6-1 X 4-1BB NA; CLDN6-1×4-1BB NA
For B2, the EC50 with human CLDN6 on cells [1] was determined as 2.84 nM; in the experiment with human CLDN6 on cells [2] it was 1.03 nM; with 4-1BB on cells, 0.406 nM; in experiment [4] it was 0.129 nM; with human CLDN6 on cells [5], 7.11 nM. Besides, the figures for the dissociation constant Kd (in experiment [3]; with monomeric human 4-1BB) were 1.61 nM and 16.4 nM, respectively.
